# Data as given in PubChem BioAssay AID1508624 (National Center for Advancing Translational Sciences (NCATS), 2021).
# About 120 (0.25%) of roughly 48,000 compounds were called active. Roughly 4% stayed inconclusive and do not appear here. Calls follow the shape of the dose curve; as a rule, active = well fitted activation curve with a large enough effect; inconclusive = small, poorly fitted or top-dose-only effect, or another doubt; inactive = no such curve, though single readings can be large or run the other way. The list shows a part of the results.
# Test: Primary qHTS for Identification of Small Molecule Activators of Huntingtin-Antisense Promoter Activity; also: nearly all actives have a fitted effect of over 55% in size
# Settings: HEK293 HTT-AS promoter firefly luciferase reporter (activity 0% = vehicle and -100% = no light), 24 h; series mostly up to 57.5 µM; activity change, positive = activation: at the top concentration
# Outline: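 HEK293 cells carrying firefly luciferase reporters were seeded at 2,500 per well in Opti-MEM and cultured for 24 h. They were then treated with compounds at up to 57.5 uM final for 24 h at 37 degrees C before Dual-Glo luminescence readout.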
row,Structure (SMILES),"activity change, positive = activation"
1,Clc1cccc(C(c2ccc3nc[nH]c3c2)n2ccnc2)c1 (centres undefined),inactive: -1.45%
2,CC(C)(C)c1nc2c3cc[nH]c(=O)c3c3cc(F)ccc3c2[nH]1,inactive: -7.2%
3,CCOC(=O)CNC(=O)N1[C@H](c2cccs2)[C@@H](C)C(=O)[C@@H](C)[C@@H]1c1cccs1,inactive: -20.3%
4,CCOc1ccc(N2CC(NC(=O)C3CCCCC3)CC2=O)cc1 (centres undefined),inactive: -13.7%
5,COc1cc(NC(=O)c2nc3nc(C)cc(C(F)F)n3n2)c(OC)cc1Cl,inactive: 0.114%
6,CC(C)NCC(O)c1ccc2ccccc2c1 (centres undefined),inactive: -6.08%
7,Cc1ccc(CNC(=O)c2ccc(CN3CC(=O)N4CCCCC4C3=O)cc2)cc1 (centres undefined),inactive: -10.7%
8,Cc1nnc(N2C(=O)c3oc4ccccc4c(=O)c3C2c2ccc(Cl)cc2)s1 (centres undefined),inactive: 2.57%
9,Cc1c(C(=O)OC2CCCCCC2)[nH]c2c1C(=O)CC(c1ccc(Cl)cc1)C2 (centres undefined),inactive: -8.58%
10,Cc1ccc2c(c1)C(=O)OC(C(=O)Nc1ncc(Cc3ccc(Cl)cc3)s1)C2 (centres undefined),inactive: -4.82%
11,O=S(=O)(O)c1ccc2cc(N=Nc3cc(S(=O)(=O)O)c4cccnc4c3O)ccc2c1,inactive: -14.9%
12,Cc1cccc(C)c1-n1ncc(C(=O)NC2CCCC2)c1C1CCN(C(=O)OC(C)(C)C)CC1,inactive: 14.2%
13,CCOc1ccc(NC(=O)NCc2cccn2Cc2ccccc2)cc1,inactive: -16%
14,O=C(c1ccc2c(c1)CCN2S(=O)(=O)c1ccc(Cl)cc1)N1CCN(c2ccc(F)cc2)CC1,inactive: -11.9%
15,CC(=O)O[C@]1(C(C)=O)CC[C@H]2[C@@H]3C[C@H](C)C4=CC(=O)CC[C@]4(C)[C@H]3CC[C@@]21C,inactive: -10.7%
16,O=C(COc1ccc(Cl)cc1Cl)Nc1cccc2cccnc12,inactive: 2.86%
17,C=Cc1ccc(Cn2c(=O)n(-c3cccc(Cl)c3)c(=O)c3c4c(sc32)CN(C(C)=O)CC4)cc1,inactive: -34.5%
18,O=C(NCCc1ccc(Cl)cc1)c1ccc2c(c1)N(Cc1ccc(Cl)cc1)C(=O)CS2,inactive: -39.6%
19,COCCCNC(=O)CCn1c(=O)c2ccccc2n(CC(=O)Nc2cc(Cl)ccc2OC)c1=O,inactive: -13.8%
20,CCN(Cc1ccccc1)Cc1c(O)ccc2oc(C)c(C(=O)Nc3ccc(C)cc3C)c12,inactive: -51.1%
21,CN1C(C(=O)Nc2cccc(O)c2)=CC(c2ccco2)=NS1(=O)=O,inactive: -17.5%
22,Cc1cccc(N2CCn3c2nc2c3c(=O)n(C/C=C/c3ccccc3)c(=O)n2C)c1,inactive: -2.99%
23,CCCCN(CC)c1nc(-c2ccccc2F)nc2ccccc12,inactive: -7.71%
24,Cc1cc(C)c(NC(=O)Cn2nnc(S(=O)(=O)c3ccc(C)c(C)c3)c2N)c(C)c1,inactive: -15.9%

row,Structure (SMILES),"activity change, positive = activation"
1,CC(C)c1ccc(NC(=O)N2c3ccccc3Sc3ccccc32)cc1,inactive: -29.2%
2,CCc1nnc(NC(=O)c2nc(SCc3ccccc3F)ncc2Cl)s1,inactive: 1.22%
3,CCCCOc1ccc(Cn2c(=O)oc3ccc(C)cc32)cc1OC,inactive: -19%
4,COc1ccc(S(=O)(=O)N2CCN(c3cccc(C)c3C)CC2)c2ccccc12,inactive: -10.7%
5,O=S1(=O)c2ccccc2N(Cc2ccc(Cl)cc2)c2ccccc21,inactive: -33.5%
6,COc1ccc2c(c1)c(=O)c(C(=O)c1ccc(F)cc1)cn2CC(=O)Nc1ccc2c(c1)OCO2,inactive: -26.7%
7,Cc1ccc(S(=O)(=O)N(CC(=O)NCCSc2ccc(Cl)cc2)c2ccccc2C)cc1,inactive: -15.9%
8,O=C(CCCCCn1c(=O)c2sccc2n(Cc2ccc(Cl)cc2)c1=O)NCc1ccc2c(c1)OCO2,inactive: -28%
9,Cc1cc(Br)ccc1NC(=O)c1sc2nc3n(c(=O)c2c1C)CCCC3,inactive: 17.8%
10,CC(C)CCNC(=O)Cn1c(-c2cccs2)cc2cc(F)ccc21,inactive: -16.5%
11,Cc1ccc(NC(=O)C2CCN(c3nnc(C)c4c(C)n(-c5ccccc5)nc34)CC2)c(Cl)c1,inactive: -26.1%
12,COc1ccc(Cl)cc1C(=O)Nc1nnc2n1CCS2,inactive: -10.1%
13,CCc1ccc(CNC(=O)C2COc3ccc(OC)cc3C2)cc1 (centres undefined),inactive: -12.6%
14,CCOC(=O)c1c(C)sc(-c2c(-c3ccccc3)[nH]c3[nH]c(=O)[nH]c(=O)c23)c1O,inactive: -6.16%
15,CN(Cc1ccccc1)C(=O)CSc1nnc(-c2cccc(Cl)c2)o1,inactive: 3.56%
16,COc1ccc(-c2noc(-c3ccc(N4CCOCC4)c([N+](=O)[O-])c3)n2)cc1,inactive: -11.3%
17,CCc1ccc(S(=O)(=O)NCc2ccc3c(c2)CCN3C(=O)c2ccc(C)cc2)cc1,inactive: -57.9%
18,CC1=C(C(=O)Nc2ccccc2C)C(c2cccs2)n2nc(SCc3ccccc3)nc2N1 (centres undefined),inactive: -19.3%
19,O=C(Cn1ncc2c(Cl)cccc21)NCc1cccc(Cl)c1,inactive: 10.2%
20,CCc1ccc(-n2nc(CO)c(C(=O)NCCOC)n2)cc1,inactive: 27.4%
21,Cc1scc(CN2CCN(c3ccccc3F)CC2)c1C,inactive: -3.38%
22,CN(C(=O)CC(=O)Nc1ccc2nc3n(c(=O)c2c1)CCCCC3)c1ccccc1F,inactive: -47.1%
23,CC(C)(C)C1CCc2c(sc(NC(=O)c3cccc(Cl)c3)c2C(=O)NCc2ccco2)C1 (centres undefined),inactive: -34.6%
24,CC(=O)c1ccc(NC(=O)C2CCN(c3nnc(C)c4c(C)n(-c5ccccc5)nc34)CC2)cc1,inactive: -20.4%

row,Structure (SMILES),"activity change, positive = activation"
1,Cc1ccc(-c2cc(C(=O)N3CCN(S(=O)(=O)c4ccc(Br)cc4)CC3)[nH]n2)c(C)c1,inactive: -27.3%
2,CC(C)OCCCn1c(=O)c2ccccc2n2c(-c3ccccc3)nnc12,inactive: 7.41%
3,O=C(Cc1ccccc1)Nc1sc2c(c1C(=O)Nc1cccc(Cl)c1)CCCCC2,inactive: -9.57%
4,CCc1nn2c(=O)cc(COC(=O)Cc3ccccc3)nc2s1,inactive: 9.19%
5,O=C(O)C1=NC(C(=O)O)CC(C=CN2c3cc(O)c(OC4OC(CO)C(O)C(O)C4O)cc3CC2C(=O)O)=C1 (centres undefined),inactive: 3.94%
6,Cc1ccc(S(=O)(=O)c2cn(Cc3ccccc3)c3cc(N4CCCCC4)c(F)cc3c2=O)cc1,inactive: -5.16%
7,CC(C)CCOc1ccc(Cn2c(=O)oc3ccccc32)cc1,inactive: 3.46%
8,COc1ccc(NC(=O)CSC2=Nc3ccccc3C3=NC(CC(=O)NCCc4ccccc4)C(=O)N23)cc1 (centres undefined),inactive: -2.41%
9,O=C(NCc1ccco1)c1ccc(Cn2c(SCc3ccccc3)nc3cccnc32)cc1,inactive: 5.89%
10,COc1cc(OC)c(NC(=O)CCS(=O)(=O)c2ccc3c(c2)oc(=O)n3C)cc1Cl,inactive: 1.45%
11,Cc1ccc(C2CC(=O)Nc3cc4c(cc32)OCCO4)cc1Br (centres undefined),inactive: -40.8%
12,CCOc1ccc(CCNC(=O)c2cc(=O)[nH]c3ccc(S(=O)(=O)N4CCCCC4C)cc23)cc1OCC (centres undefined),inactive: -21.1%
13,Fc1ccccc1-c1nc(N2CCN(c3cccc(Cl)c3)CC2)c2ccccc2n1,inactive: -34.1%
14,COCCNC(=O)Cn1ccc2cc(S(=O)(=O)N3CCCCCC3)ccc21,inactive: -14.7%
15,CCOC(=O)N1CCC(n2c(=O)[nH]c3cc(Cl)ccc32)CC1,inactive: -77.1%
16,CCn1c(=O)c2c(nc3n2CCN3c2ccc(OC)cc2)n(C)c1=O,inactive: 9.57%
17,Cc1ccc(-c2noc(CCC(=O)N(C)c3ccccc3F)n2)cc1,inactive: -17.8%
18,Cc1cccc(NC(=O)Cn2c(=O)n(Cc3ccc4c(c3)OCO4)c(=O)c3oc4ccccc4c32)c1C,inactive: -8.99%
19,Cc1ccc(CNS(=O)(=O)c2ccc(C(=O)N(C)C)s2)cc1,inactive: -5.08%
20,CC(C)(C)C1CCc2c(sc(NC(=O)C3c4ccccc4Oc4ccccc43)c2C(N)=O)C1 (centres undefined),inactive: -16.1%
21,CCn1cc(S(=O)(=O)c2cc(C)cc(C)c2)c(=O)c2cc(F)c(N3CCCCC3)cc21,inactive: -7.86%
22,CCC(=O)N1c2ccc(S(=O)(=O)CCC(=O)NCc3ccccc3OC)cc2CC1C (centres undefined),inactive: -11.4%
23,COC(=O)c1nnn(CC(=O)NC(=O)Nc2ccc(F)cc2)c1C(=O)OC,inactive: 13%
24,CC(=O)N1CCc2cc(Br)cc(S(=O)(=O)N3CCC(C(=O)Nc4cccc(C)c4C)CC3)c21,inactive: -11.3%

row,Structure (SMILES),"activity change, positive = activation"
1,Cc1ccc(CNC(=O)Nc2cc(C(=O)NCc3cccc(F)c3)ccc2N2CCCC2)cc1,inactive: -23.6%
2,O=C(Nc1ccc(S(=O)(=O)N2CCC(c3nc4ccccc4s3)CC2)cc1)c1ccccc1,inactive: -12.4%
3,CC1CCCCN1Cc1c(O)ccc2c(=O)c(-c3ccccc3Cl)c(C(F)(F)F)oc12 (centres undefined),inactive: -8.66%
4,CCCCn1c(CNC(=O)C23CC4CC(CC(C4)C2)C3)nnc1SCC(=O)Nc1ccc(C)cc1,inactive: -33.1%
5,COCCSc1nc2c([nH]c3ccccc32)c(=O)n1-c1ccc(OC)c(OC)c1,inactive: -27.7%
6,Cc1cccc(CC(=O)N2CC(=O)Nc3ccc(Br)cc3C2c2ccc(F)cc2)c1 (centres undefined),inactive: -37.8%
7,CCc1cccc(-n2nnc(-c3nsc(NC(=O)c4cccc(OC)c4)n3)c2C)c1,inactive: -27.2%
8,O=C(Cn1ncc2c3ccccc3n(Cc3ccccc3F)c2c1=O)NCc1ccccc1Cl,inactive: -16.2%
9,Cc1cc2c(cc1S(=O)(=O)Nc1cccc(C#N)c1)OCC(=O)N2,inactive: -10.9%
10,COc1ccc(-n2nc(C(=O)N3CCCCC3C)c3c4ccccc4n(C)c3c2=O)cc1Cl (centres undefined),inactive: -18.6%
11,COc1cccc(C(=O)Nc2ccccc2C(=O)OCc2cc(=O)n3c4c(sc3n2)CCCC4)c1,inactive: -15.4%
12,COc1ccc(CNC(=O)CN(C)S(=O)(=O)c2ccc3nc(C)sc3c2)cc1,inactive: -8%
13,CC(C)N(C(=O)CSc1cn(CC(=O)N2CCCCCC2)c2ccccc12)C(C)C,inactive: -29%
14,Cc1coc2c(C)c3oc(=O)c(CCC(=O)NCCc4ccccc4F)c(C)c3cc12,inactive: -4.4%
15,CCOC(=O)c1ccc(NC(=O)Cn2c(=O)cc(C)c3c(C)nn(-c4ccc(CC)cc4)c32)cc1,inactive: -4.95%
16,COc1cccc(/C=C/c2nc(C#N)c(N3CCC(C(N)=O)CC3)o2)c1,inactive: -11%
17,Cc1ccc(C2C=C(c3ccccc3)Nc3nc(NS(=O)(=O)c4ccccc4)nn32)cc1 (centres undefined),inactive: -9.88%
18,CCOc1ccc(CCNC(=O)c2cn(-c3ccc(OC)cc3)c(=O)c3ccccc23)cc1OCC,inactive: -24.1%
19,COc1ccc(Br)cc1S(=O)(=O)Nc1cc(-c2cn3ccccc3n2)ccc1C,inactive: -23.6%
20,COc1ccc(NC(=O)Cn2c(=O)n(CCC(=O)NCC3CCCO3)c(=O)c3cc(OC)c(OC)cc32)cc1 (centres undefined),inactive: 0%
21,CN(Cc1ccccc1)C(=O)c1ccc(CSc2nc3cccnc3n2Cc2ccccc2F)cc1,inactive: -20.9%
22,COc1ccccc1Nc1sc(C(=O)c2ccc(F)cc2)c(N)c1S(=O)(=O)c1ccc(C)cc1,inactive: -23.7%
